Reference: PubChem BioAssay AID493208 (National Center for Advancing Translational Sciences (NCATS), 2011)
The whole screen tested about 44,000 compounds, of which about 340 (0.77%) were called active. Roughly 5% stayed inconclusive and do not appear here. The call rests on the fitted dose curve; in most records, active means well fitted inhibition curve with a large enough effect; inconclusive means small, poorly fitted or top-dose-only effect; inactive means flat fitted curve, though single readings scatter. Some of the results follow.

assay: Acumen qHTS Assay for Inhibitors of the mTORC1 Signaling Pathway in MEF (Tsc2-/-, p53-/-) Cells: Sytravon; details: phospho-rpS6 immunofluorescence/PI, 24 h; series mostly up to 38.3 µM; activity change, negative = inhibition: at the top concentration;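 further: plate controls were DMSO for no effect and rapamycin for full effect; nearly all actives have a fitted effect of over 50% in size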
In short: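 Plate MEFs (Tsc2-/-, p53-/-, empty vector) in DMEM/10% FBS; after 24 h add compound, incubate 24 h at 37 degree Celsius; fix in PFA/TX-100, block, stain phospho-rpS6 and 10 uM PI; scan at 488 nm; report % positive cells.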

SMILES | activity change, negative = inhibition
COc1cc(C2CC(=O)N(c3ccccc3)C3=C2C(=O)OC3)cc(OC)c1OC (stereo not given) | inactive: -3.83%
CCOC(=O)c1c(C)[nH]c(C)c1S(=O)(=O)N1CCCC(C(=O)Nc2ccc(F)cc2F)C1 (stereo not given) | inactive: -3.41%
C=C(C)CSc1nc2sc3c(c2c(=O)n1-c1ccccc1)CCC(C)C3 (stereo not given) | inactive: -5.34%
CCOc1ccc(NC(=O)CSc2cn(CC(=O)N3CCCCCC3)c3ccccc23)cc1 | inactive: -9.12%
COc1ccccc1CNc1ccc(-c2nc(-c3ccncc3)no2)cc1[N+](=O)[O-] | inactive: 0.355%
Cc1cc2ccccc2n1CCNC(=O)c1cccc(Cl)c1 | inactive: -2.45%
COc1ccc(CNC(=O)CC(c2ccc(OC)c(OC)c2)N2Cc3ccccc3C2=O)cc1 (stereo not given) | inactive: -0.595%
CCOc1ccc(NC(=O)CSC2=Nc3ccccc3C3=NC(CC(=O)NCc4ccco4)C(=O)N23)cc1 (stereo not given) | inactive: -4.06%
CC(C)c1ccc(NC(=O)c2cc(S(=O)(=O)NCc3ccccc3Cl)ccc2F)cc1 | inactive: -22.9%
CCOc1cc(C(=O)N2CCc3c([nH]c4ccccc34)C2c2ccccc2)cc(OCC)c1OCC (stereo not given) | inactive: 2.09%
Cc1ccc(N(CC(=O)Nc2ccc(C)c(F)c2)S(=O)(=O)c2c(C)n[nH]c2C)cc1 | inactive: -0.157%
N#Cc1c[nH]n2c(NC3CCCC3)c(-c3cccc(Cl)c3)nc12 | inactive: 0.971%
COc1ccc(C)cc1NC(=O)Cn1c(=O)ccc2cc(S(=O)(=O)N3CCCC3)ccc21 | inactive: -1.67%
CCOC(=O)c1sc2ncn(CC(=O)Nc3ccc(C)cc3Br)c(=O)c2c1C | inactive: 0.52%
CCc1ccc(Sc2cc(C(=O)NC(C)CC)c3ccccc3n2)cc1 (stereo not given) | inactive: 0.128%
CCOc1ccc(OCC(=O)Nc2nnc3n2CCS3)cc1 | inactive: -1.8%
COc1cccc(NC(=O)c2cnn(-c3ccccc3)c2-n2cccc2)c1 | inactive: -1.1%
COc1ccc(-c2noc(CSc3nnc(-c4ccncc4)n3-c3ccc(C)cc3)n2)cc1 | inactive: -4.21%
CCOc1ccc(Sc2cc(C(=O)NCCc3ccccc3)c3ccccc3n2)cc1 | inactive: 6.74%
CCOc1nc(NC(=O)NS(=O)(=O)Oc2ccccc2)nc(-c2ccccc2)n1 | inactive: 1.29%
COc1cccc(CNC(=O)C2CCC(CNS(=O)(=O)c3ccc(Br)s3)CC2)c1 (stereo not given) | inactive: -7.75%
CCOC(=O)C(Cc1c[nH]c2ccccc12)NC(=O)COc1ccc(Cl)c(C)c1 (stereo not given) | inactive: -2.44%
O=S(=O)(c1ccc2c(c1)CCN2)N1CCCCCC1 | inactive: -0.504%
Cc1ccc2c(c1)c1c(c(=O)n(Cc3ccccc3)c(=O)n1CC(=O)NCc1ccccc1Cl)n2C | inactive: -14.8%

SMILES | activity change, negative = inhibition
CCc1ccc(NCc2cc3cc(OC)c(OC)cc3n(CC(=O)Nc3cc(C)ccc3C)c2=O)cc1 | inactive: 1.84%
CN(C(=O)CN1C(=O)CCSc2ccc(S(=O)(=O)N3CCCC3)cc21)c1ccccc1 | inactive: -2.23%
Cc1cccc(C)c1Nc1nc2ccccc2nc1NS(=O)(=O)c1ccccc1 | inactive: 9.71%
COc1ccc(C(C)n2c(C)c3c(C)nnc(C)c3c2C)cc1 (stereo not given) | inactive: -6.24%
COc1ccc(S(=O)(=O)N(CC(=O)NCc2ccccc2)c2ccc(C)cc2)cc1OC | inactive: -7.71%
O=C(Cn1c(=O)nc(-c2ccccc2)c2ccccc21)NCc1ccc(F)cc1 | inactive: -5.28%
O=C(Nc1ccccc1)N(Cc1ccc(F)cc1)c1ccccn1 | inactive: -3.32%
C=Cc1ccc(CN2C(=O)c3ccccc3Sc3ccc(C(=O)OCc4ccco4)cc32)cc1 | inactive: -8.96%
Cc1cc(O)c(C(c2ccccc2)N2CCN(C)CC2)c(=O)n1Cc1ccco1 (stereo not given) | inactive: -7.42%
COc1ccc(-c2noc(CN(C(C)C)S(=O)(=O)c3ccc(Br)cc3)n2)cc1 | inactive: 1.52%
CC1=C(C(=O)N2CCN(c3cccc(C)c3C)CC2)C2(CCCCC2)OC1=O | inactive: -13.2%
Cc1cccc(NC2=CC(c3cccc(Br)c3)N(c3cccc(C)c3)C2=O)c1 (stereo not given) | inactive: 5%
CCN(CC)CCCNC(=O)c1ccc2c(c1)NC(=O)C(CS(=O)(=O)Cc1cccc(Br)c1)N2 (stereo not given) | inactive: -0.123%
Cc1ccc(CNC(=O)c2c(O)nc3c(C)cccn3c2=O)cc1 | inactive: -1.19%
Cc1nc2ccc(S(=O)(=O)NC(CC(C)C)C(=O)N3CCN(c4ccc(F)cc4)CC3)cc2s1 (stereo not given) | inactive: -8.94%
CN(C)c1ccc(CNS(=O)(=O)c2ccc3[nH]c4c(c3c2)CCCCC4)cc1 | inactive: -0.188%
COc1ccc(Br)cc1CNC(=O)c1nn(-c2ccc(C)cc2)c(=O)c2c1c1ccccc1n2C | inactive: -12.7%
Cc1ccccc1-c1noc(-c2cccnc2N(C)Cc2ccc(Cl)cc2)n1 | inactive: -0.213%
Fc1ccc(Cc2cn3cc(-c4ccccc4)nc3s2)cc1 | inactive: 2.21%
O=C(C1CC1)N1CCN(c2nc3c(Cl)cccc3s2)CC1 | inactive: -2.25%
COc1ccc(CCNC(=O)CSc2nnnn2-c2cccc(C(C)=O)c2)cc1OC | inactive: -2.03%
CCOC(=O)c1ccc(NC(=O)c2csnn2)cc1 | inactive: -0.848%
CCOC(=O)c1cccc(NC(=O)CCC(=O)N2CC(C)Oc3ccc(C)cc32)c1 (stereo not given) | inactive: 2.11%
CC1CCN(S(=O)(=O)c2ccc3c(c2)N(CC(=O)NC(C)C)C(=O)CO3)CC1 | inactive: -12.8%

SMILES | activity change, negative = inhibition
Cc1ccc(-c2nnc(Nc3ccc(Cl)c(Cl)c3)c3ccccc23)cc1S(=O)(=O)NCCO | inactive: 14.4%
COc1cccc(CNC(=O)CSc2ncc(S(=O)(=O)c3ccc(Br)cc3)c(=O)[nH]2)c1 | inactive: 6.53%
Cc1ccc(NC(=O)C2CCCN2S(=O)(=O)c2cccc3nsnc23)cc1Cl (stereo not given) | inactive: -8.79%
COc1ccc(CNC(=O)CSc2ncc(S(=O)(=O)c3ccc(C)c(Cl)c3)c(=O)[nH]2)cc1 | inactive: -1.02%
COc1ccc(CNC(=O)c2ccc3c(c2)CCN3S(=O)(=O)c2ccc(C)cc2)cc1 | inactive: -21.3%
Cc1c(C(=O)Nc2ccc(C(C)C)cc2)sc2nc[nH]c(=O)c12 | inactive: -2.24%
Cc1cccc(NC(=O)c2oc3ccccc3c2NC(=O)c2cc(=O)c3cc(Cl)ccc3o2)c1 | inactive: 4.1%
Cn1c(SCC(=O)c2ccc(F)cc2)nnc1-c1ccccc1Br | inactive: -13.5%
COc1ccccc1C(=O)Nc1c(C(=O)N(C)c2ccccc2)sc2nc(C)cc(C)c12 | inactive: 6.85%
Cn1c(=O)c2sccc2n2c(CCC(=O)NCc3ccccc3Cl)nnc12 | inactive: 1.16%
CN(Cc1ccccc1)C(=O)C1CCN(S(=O)(=O)c2ccc3nc4c(c(C(=O)O)c3c2)CCCC4)CC1 | inactive: 0.0393%
COc1ccc(CNC(=O)C2CCN(C(=O)N3CC(C)Oc4ccc(C)cc43)CC2)cc1 (stereo not given) | inactive: -3.29%
O=C(CCS(=O)(=O)c1cc(Br)cc2c1N(C(=O)C1CC1)CC2)Nc1ccc(C(F)(F)F)cc1 | inactive: 0.504%
COc1ccc(-c2nc(Cn3c(SCc4ccccc4F)nc4ccncc43)c(C)o2)cc1OC | inactive: -1.93%
Cc1ccc(S(=O)(=O)Nc2nc3n(n2)C(c2ccccc2Cl)C=C(c2ccccc2)N3)cc1 (stereo not given) | inactive: -4.84%
CCOc1ccc(C(=O)Nc2cc(-c3cn4cccnc4n3)ccc2C)cc1OCC | inactive: -0.124%
CCn1cc(C(=O)NCCc2ccc(C)cc2)c(=O)c2cc(S(=O)(=O)N3CCCCC3)ccc21 | inactive: -14.5%
Cc1cc(C)cc(NC(=O)C2CCC(CNS(=O)(=O)c3ccc4c(c3)C(C)(C)C(=O)N4C)CC2)c1 (stereo not given) | inactive: -15.9%
O=C(Cn1c(=O)n(-c2ccc(Cl)cc2)c(=O)c2oc3ccccc3c21)Nc1ccccc1 | inactive: 2.21%
CC1CCN(c2ncnc3c2nnn3C)CC1 | inactive: -4.23%
CCN(CC)S(=O)(=O)c1nnc(NC(=O)c2ccc(C(C)C)cc2)s1 | inactive: -8.88%
O=C(c1ccco1)N1CCN(c2nc3c(Cl)cccc3s2)CC1 | inactive: -4.31%
COc1cccc(C(=O)Nc2ccccc2-c2nnc(-c3cc(OC)ccc3Br)o2)c1 | inactive: 6.26%
O=C(Cc1ccc(Cl)cc1)NCC(c1cccs1)S(=O)(=O)c1ccc(F)cc1 (stereo not given) | inactive: 1.64%

SMILES | activity change, negative = inhibition
Cn1cnc(S(=O)(=O)N2CCC(C(=O)NCc3ccc(F)cc3)CC2)c1 | inactive: 11.2%
COc1ccc(C2=C(C)C(=O)N(Cc3ccc(C(=O)Nc4cc(C)ccc4C)cc3)S2(=O)=O)cc1 | inactive: -8.45%
Cc1nn2c(=O)cc(COC(=O)c3cccc(NC(=O)c4ccc(C(C)(C)C)cc4)c3)nc2s1 | inactive: 0%
COc1cccc(C(=O)Nc2ccc3nc(N4CCC(C)CC4)cc(C)c3c2)c1 | inactive: -12.7%
CCOC(=O)c1[nH]c2c(c1Cc1ccccc1OC)C(=O)CC(c1ccc(OCC)cc1)C2 (stereo not given) | inactive: 0.306%
COc1ccc(C(=O)CCC(=O)Nc2ccc(OC)c(Cl)c2)cc1 | inactive: -6.5%
COc1ccc(C2=CC(c3cccc(C)c3)n3nnnc3N2)cc1 (stereo not given) | inactive: -1.23%
CCN(CC)S(=O)(=O)c1ccc2c(c1)N(CC(=O)Nc1ccc(C)cc1C)C(=O)C1CCCN21 (stereo not given) | inactive: 0%
CC(C)NC(=O)c1ccccc1NC(=O)c1nsc2ccccc12 | inactive: -1.21%
COc1ccccc1N1CCN(c2nc3ccc(C)cc3n3nnnc23)CC1 | inactive: -2.06%
Cc1ccc(S(=O)(=O)c2nc(S(C)(=O)=O)sc2NCc2ccccc2)cc1 | inactive: -3.86%
CCOC(=O)c1c(C)oc2nc(C)nc(NCCc3ccc(SC)cc3)c12 | inactive: 2.81%
O=C(Cc1ccc(NC(=O)N2CCCCc3ccccc32)cc1)NCc1ccccc1 | inactive: -27.8%
CCCCN(CCCC)CCNC(=O)c1cc(-c2cccnc2)nc2ccc(S(=O)(=O)N3CCC(C)CC3)cc12 | inactive: -0.694%
CCOc1ccc2nc(N3CCCC(C(=O)Nc4cccc(Cl)c4C)C3)sc2c1 (stereo not given) | inactive: -8.03%
CCc1cc2c(cc3c(=O)n(CC(=O)N4CCCCC4)ncn32)s1 | inactive: -7.59%
Cc1ccc(Cl)cc1NC(=O)CN1C(=O)COc2ccc(S(=O)(=O)N3CCOCC3)cc21 | inactive: 1.58%
CCCCn1cc(S(=O)(=O)c2ccc(F)cc2)c(=O)c2ccccc21 | inactive: -0.792%
COc1ccccc1CNC(=O)c1ccc(-c2nc(CS(=O)c3ccccc3)c(C)o2)cc1 (stereo not given) | inactive: -1.74%
Cc1cc(F)ccc1NC(=O)C1CCCN(S(=O)(=O)c2ccc3c(c2)CCCC(=O)N3)C1 (stereo not given) | inactive: -0.0858%
Cc1cnc2c(c1SCC(=O)Nc1ccc(F)cc1F)c(=O)n(C)c(=O)n2C | inactive: -0.954%
COc1ccc(N(Cc2cccs2)C(=O)COc2ccc(C(C)C)cc2)cc1 | inactive: -15.9%
COc1ccc(S(=O)(=O)c2c(Nc3ccc(C)cc3)sc(C(=O)c3ccc4c(c3)OCO4)c2N)cc1 | inactive: 0.394%
